Source: PubChem BioAssay AID651820 (National Center for Advancing Translational Sciences (NCATS), 2012)
Screen size: about 340,000 compounds; about 12,000 (3.5%) were called active. The shares of active, inactive and inconclusive entries below differ from those in the screen. The call rests on the fitted dose curve; in most records, active means well fitted inhibition curve with a large enough effect; inconclusive means small, poorly fitted or top-dose-only effect, or another doubt; inactive means no such curve, though single readings can be large or run the other way. No potency is given beside an inconclusive call; the fits are too rough.

Experiment: qHTS Assay for Inhibitors of Hepatitis C Virus (HCV)
Details: Huh7.5.1 HCVcc-Cre (HCVcc is cell-culture hepatitis C virus) infection, luciferase reporter, 44 h; activity change, negative = inhibition: at 41.8 µM (top of the series) unless noted
Summary of the method: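 Seed cells (1,000/well) for 4 h; treat with compound and infect with HCVcc-Cre, moi about 0.5. Incubate 44 h, then detect luciferase activity.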
On the % scale 0 is the no-effect control and ±100 the full control effect; potency means the concentration at half of the fitted maximal effect; tags describe the fitted curve by direction and shape.

Compound | Potency | activity change, negative = inhibition
CCOC(=O)c1c(C)[nH]c(C(=O)N(C)Cc2cccc(OC)c2OC)c1C | inconclusive [inhibitor, full curve] | 
O=C(Nc1ccc(F)cc1)Nc1cc(S(=O)(=O)N2CCOCC2)ccc1N1CCCC1 | inconclusive [inhibitor, full curve] | 
Cc1cccc(NC(=O)CSc2nnc(-c3ccco3)c(-c3ccco3)n2)c1 | inconclusive [inhibitor, partial curve] | 
Cc1ccc(Nc2c(-c3ccccc3O)nc3ncccn23)cc1 |  | inconclusive: -38.1% [inhibitor]
Cc1cc(C)c(S(=O)(=O)c2ccccc2C)c(OCC(C)(C)C)n1 | inconclusive [inhibitor, single point] | 
COCCN(CCOC)c1nc(N)c2c(N)nc3c(c2c1C#N)CC(=O)N3Cc1ccc(Cl)cc1 | inconclusive [inhibitor, full curve, poor fit] | 
Cn1c(=O)oc2cc(S(=O)(=O)Nc3ccc4c(c3)OCO4)ccc21 | inconclusive [inhibitor, single point] | 
CCOC(=O)c1c(NC(=O)c2cccs2)sc2c1CCC2 | inconclusive [inhibitor, full curve] | 
CCOC(=O)Nc1nc(-c2ccccc2)c(C(=O)c2ccc(Cl)cc2)s1 | inconclusive [inhibitor, full curve] | 
CCCc1c(C)nc2ccccc2c1SCCC#N | inconclusive [inhibitor, single point] | 
O=S(=O)(Nc1nc2ccccc2nc1Nc1ccc(N2CCOCC2)cc1)c1cc(Cl)ccc1Cl | inconclusive [inhibitor, single point] | 
O=C(N[C@H]1C/C=C\C[C@H](CC(=O)N(CCO)Cc2ccccc2)C(=O)N[C@H](Cc2c[nH]c3ccccc23)COC1=O)OCC1c2ccccc2-c2ccccc21 |  | inactive: 25.5%
Cc1ccc(OCC(=O)Nc2ccc(-c3nc4ncccc4o3)cc2)c(C)c1 | inconclusive [inhibitor, single point] | 
COc1cccc(NP(=O)(Oc2ccccc2Cl)Oc2ccccc2Cl)c1 | inconclusive [inhibitor, single point] | 
COc1cccc(N(C(=O)c2snc(C(N)=O)c2N)C(C(=O)NCC2CCCO2)c2c[nH]c3ccccc23)c1 (configuration not stated) | inconclusive [inhibitor, partial curve] | 
CCOCCCNC(=O)c1ccc2c(c1)ncn2-c1cccc(C)c1 | inconclusive [inhibitor, single point] | 
CCN(CC)CCN1Cc2ccccc2C1=N | inconclusive [inhibitor, single point] | 
O=C(COc1ccccc1)Nc1ccc(-c2ccc(N3CCOCC3)nn2)cc1 |  | inactive: 2.08%
CCOC(=O)C1ON2CCCCC2C1(O)C(F)(F)F (configuration not stated) |  | inactive: 9.57%
COc1cccc(-c2nn(-c3ccccc3)cc2CO)c1 |  | inactive: -26.2%
c1ccc(OCc2nn3c(-c4ccccn4)nnc3s2)cc1 | inconclusive [inhibitor, single point] | 

Compound | Potency | activity change, negative = inhibition
O=C(CSc1ccsc1[N+](=O)[O-])Nc1cc(F)ccc1F |  | inactive: -7.84%
COc1ccc(CCN(C)C2CCCN(S(=O)(=O)c3ccc(C)cc3)C2)cc1OC (configuration not stated) | inconclusive [inhibitor, single point] | 
c1csc(-c2nnc(N3CCOCC3)c3ccccc23)c1 | inconclusive [inhibitor, full curve, poor fit] | 
O=C(CCSCCC(=O)N1CCCC1)N1CCCC1 |  | inactive: 33.8%
CCc1ccc2nc(NC(=O)c3cc(C)on3)sc2c1 | inconclusive [inhibitor, partial curve] | 
O=C(CCSc1ccc(Cl)cc1)c1ccco1 | inconclusive [inhibitor, single point] | 
COc1cc(NC(=O)c2ccco2)c(OC)cc1NC(=O)CSc1nnc(-c2cccs2)n1C | inconclusive [inhibitor, single point] | 
CSCCC(NC(=O)c1ccc([N+](=O)[O-])cc1Cl)C(=O)OCC(=O)C12CC3CC(CC(C3)C1)C2 (configuration not stated) | inconclusive [inhibitor, single point] | 
CCOC(=O)NN1C(=O)c2ccccc2NC1c1cccs1 (configuration not stated) | inconclusive [inhibitor, single point] | 
CCOc1cc(-c2cc(-c3ccc(N)cc3)nc(N)c2C#N)ccc1O | inconclusive [inhibitor, single point] | 
COc1cccc(NC(=O)c2cc(C(=O)Nc3cccc(OC)c3)n(C)n2)c1 | inconclusive [inhibitor, partial curve] | 
CCCCCCCCNc1ccccc1S(=O)(=O)NCc1ccccc1 | inconclusive [inhibitor, single point] | 
O=C(COC(=O)c1cccc([N+](=O)[O-])c1)Nc1ncc(Br)s1 |  | inactive: 1.1%
NC(=S)N=Nc1c(O)n(CCCl)c2ccc(Br)cc12 | inconclusive [inhibitor, single point] | 
C=CCC[C@H](Cc1ccc(F)cc1)C(=O)OC[C@@H](Cc1c[nH]c2ccccc12)NC(=O)[C@@H](CC=C)CC(=O)N(CCO)Cc1ccccc1 | inconclusive [inhibitor, single point] | 
CC(C)C(c1nnnn1C(C)(C)C)N1CCC(Cc2ccccc2)CC1 (configuration not stated) |  | inactive: -25.7%
Cn1c(=O)c2sc3c(c2n(CC(=O)Nc2ccccc2)c1=O)COC(C)(C)C3 |  | inactive: 0.545%
Cc1c(C)c(C)c2[nH]c(-c3ccc4c(c3)OCO4)nc2c1C | inconclusive [inhibitor, single point] | 
COc1ccc(-c2nc(C(N)=O)c3[nH]c(=O)n(-c4cccc(Cl)c4)c3n2)cc1OC | inconclusive [inhibitor, partial curve] | 
COc1cccc(-c2nc(CS(=O)(=O)CC(=O)NCCc3ccc(OC)cc3OC)c(C)o2)c1 | inconclusive [inhibitor, partial curve] | 
CCCC(=O)NC(c1ccc(C)cc1)c1ccc2cccnc2c1O (configuration not stated) | active: 3.55 µM | 
